58 compounds from PubChem BioAssay AID463173 (ICCB-Longwood Screening Facility, Harvard Medical School, 2010) can be followed below.

Hit rate of the full screen: of about 52,000 compounds, about 1,700 (3.3%) were called active. Rule as the data show it: active = survival mostly below about 52% (no sharp cut-off); inactive = mostly above about 56%. The list shows a part of the results.

In the experiment the test system is Wild type. Kind of experiment: S. aureus survival, RN4220 and DeltatarO strains – OD600, teichoic acid synthesis inhibitors, primary screen (AID 463173). The settings on record: S. aureus RN4220 wild type/DeltatarO growth, OD600, 18 h, active compounds read low, screened at 18.75 µg/mL (by protocol).
As to `Cc1nc2nc(C)c(CCC(=O)NCc3ccccc3)c(C)n2n1`, the survival was inactive: 90%. `CCOc1ccc2ncc3c(-c4cccc(OC)c4)nn(-c4ccccc4)c3c2c1`: the survival was inactive: 125%.

In the case of `Cc1ccc2occ(CC(=O)Nc3ccc(S(=O)(=O)N4CCC(C)CC4)cc3)c2c1`, the survival was inactive: 72%.

On to `CCC(C)NC(=O)Cn1c(=O)n(Cc2ccc(C(=O)NCc3ccc(C)cc3)cc2)c(=O)c2ccccc21` (stereo not drawn), for which the survival is inactive: 70%. With `COc1cccc(Cc2nc3ccccc3nc2SCC(=O)Nc2cc(OC)ccc2OC)c1` the figure was inactive: 60%; with `CCOc1ccccc1CNCCSc1nnnn1C`, inactive: 74%; with `CCOCCn1ccc2c(OCC(=O)Nc3cccc(F)c3)cccc2c1=O`, inactive: 81%.

Turning to `CCOc1cc(-c2ccc(OC(=O)c3ccccc3)c(OC)c2)cc(=O)c2c(C)oc(C)c12`, the survival is inactive: 96%.

With `CCN(CCCNC(=O)CN1N=C(c2ccccc2)CCC1=O)c1ccccc1`, the survival was active: -6%. With `COc1ccc2ccccc2c1CN1CCN(C(=O)c2ccccc2F)CC1` the figure was inactive: 106%. With `O=c1c2sc3ccccc3c2n(Cc2ccccc2)c(=O)n1CCc1ccccc1` the figure was inactive: 76%; with `COc1ccc(C)cc1Nc1ncnc2c1c(-c1ccccc1)cn2-c1ccc(C)cc1`, inactive: 74%.

As to `CCCCNc1ncnc2c1nnn2Cc1ccccc1Cl`, the survival is inactive: 111%. The value for `O=C(NCC1CCCO1)c1ccc(Br)cc1` (stereo not drawn) was inactive: 133%; that for `COc1ccc(OC)c2sc(N3CCN(C(=O)C4COc5ccccc5O4)CC3)nc12` (stereo not drawn) was inactive: 78%; that for `COc1ccc(S(=O)(=O)N2CCC(C(=O)Nc3cc(C(F)(F)F)ccc3Cl)CC2)cc1` was inactive: 126%. Consider `CCCOc1ccc(-c2cc(C(F)(F)F)c(C#N)c(SCCC(=O)O)n2)cc1`, for which the survival was inactive: 58%. For the compound `COc1ccc(C2CC3(CC(C)(C)NC(=O)N3)Oc3cc(O)ccc32)cc1` (stereo not drawn), the survival was inactive: 113%. Take `CCCN(CCC)C(=O)Cn1c(=O)n(CCCCCC(=O)NCc2ccccc2Cl)c(=O)c2sccc21`: the survival was inactive: 91%. The value for `Cc1ccc(S(=O)(=O)C(CNC(=O)COc2ccccc2)c2ccco2)cc1` (stereo not drawn) was inactive: 124%. Consider `CC(C)CCNC(=O)C(Cc1ccccc1)NS(=O)(=O)c1ccc2c(c1)c(=O)n(C)c(=O)n2C` (stereo not drawn), for which the survival is inactive: 77%. The value for `Cc1cc(C)n(-c2nc3cc(Cl)ccc3nc2N2CCN(c3ccccc3F)CC2)n1` was inactive: 68%; that for `CCCN1c2cccc3cccc(c23)S1(=O)=O` was inactive: 103%; that for `CS(=O)(=O)N1CCc2cc(C(=O)Nc3ccc(C(F)(F)F)cc3)ccc21` was inactive: 85%.

On to `O=C(Nc1ccccc1C(=O)OCc1cc(=O)n2nc(C3CC3)sc2n1)c1cccc(F)c1`, for which the survival was inactive: 69%. Consider `Cc1ccc(CNC(=O)CSc2nc3n[nH]c(C)c3c(=N)n2-c2ccccc2Cl)cc1`, for which the survival was inactive: 83%. For the compound `O=C(O)c1csc(Br)c1Br`, the survival was inactive: 107%. With `O=C(Nc1ccc(F)c(Cl)c1)N1CCC(CN2CCOCC2)CC1` the figure was inactive: 80%; with `COc1ccccc1CNC(=O)CSc1nnc(C)c2c(C)n(-c3ccccc3)nc12`, inactive: 71%; with `CCOC(=O)c1ccc(NC(=O)C(CC)Sc2nc(N)cc(N)n2)cc1` (stereo not drawn), inactive: 133%. On to `COCCNC(=O)c1ccc(-c2nc(CS(=O)(=O)c3ccccc3)c(C)o2)cc1`, for which the survival was inactive: 123%. With `Cc1nc2sccn2c(=O)c1S(=O)(=O)Nc1cc(C(F)(F)F)ccc1Cl` the figure was inactive: 78%; with `Cc1ccccc1OCCCCn1nnc2sc3c(c2c1=O)CCC(C)C3` (stereo not drawn), inactive: 87%; with `CCOCCCn1c(SCC(=O)Nc2ccccc2Cl)nc2c(oc3ccccc32)c1=O`, inactive: 85%. With `Cc1ccc(CCNC(=O)c2ccc3c(c2)nc2n3CCOC2)cc1` the figure was inactive: 82%.

Regarding `OCCN(CCO)c1nc2ccccc2[nH]1`, the survival is inactive: 110%. The value for `CC(=O)N1CCCc2cc(S(=O)(=O)N3CCCC(C(=O)NCc4ccc(C)cc4)C3)ccc21` (stereo not drawn) was inactive: 77%; that for `O=C(NN=C1CCCCC1)C1CC1c1ccccc1` (stereo not drawn) was inactive: 114%.

In the case of `CCOc1ccc(NCc2nc3ccccc3n2CCOc2ccc(C)cc2)cc1`, the survival is active: -20%. With `O=C(CSc1nc2c(c(=O)[nH]1)CN(Cc1ccc3c(c1)OCO3)CC2)Nc1ccccc1Cl` the figure was inactive: 81%; with `CCc1ccc(-n2nc3ccc(NC(=O)COc4ccc(OC)cc4)cc3n2)cc1`, inactive: 95%; with `COc1cccc(Cn2c(CNS(=O)(=O)c3ccc(Cl)s3)nc3cccnc32)c1`, inactive: 85%. With `CN(C)c1nc(N(C)C)nc(N2CC(=O)N(N)C2=N)n1` the figure was inactive: 125%. The value for `CCc1nn2c(=O)c(S(=O)(=O)Nc3ccc(C(C)C)cc3)c(C)nc2s1` was inactive: 70%. `Cc1ccc(C)c(N2CCN(C(=O)C3CCC(CNS(=O)(=O)c4cccs4)CC3)CC2)c1` (stereo not drawn): the survival is inactive: 77%.

In the case of `CCC1CN(C(=O)N2CCC(C(=O)NCCc3ccc(OC)c(OC)c3)CC2)c2ccccc2O1` (stereo not drawn), the survival was inactive: 80%. `CCOC(=O)N1CCc2c(sc3c2c(=O)n(-c2ccc(CC)cc2)c(=O)n3Cc2cccc(Cl)c2)C1`: the survival is inactive: 81%. With `Cc1ccc(CNC(=O)CSc2c(C)cnc3c2c(=O)n(C)c(=O)n3C)cc1` the figure was inactive: 51%; with `CC1CCN(S(=O)(=O)c2ccc3nc(NCc4ccc(N(C)C)cc4)ccc3c2)CC1`, inactive: 65%. With `Cc1ccc(C)c(N2CCN(C(=O)c3cc4cc5ccc(C)cc5nc4o3)CC2)c1` the figure was inactive: 84%; with `O=S(=O)(c1ccc(S(=O)(=O)N2CCC3(CC2)OCCO3)cc1)N1CCCC1`, inactive: 105%. With `Cc1ccc(NC(=O)C2CCN(S(=O)(=O)c3cccc4nsnc34)CC2)cc1` the figure was inactive: 89%; with `CCn1cc(C(=O)OCC(=O)Nc2cc(Cl)ccc2C)c(=O)c2ccc(C)nc21`, inactive: 68%; with `Cc1ccc(NC(=O)CN2C(=O)C(c3ccc(F)cc3)=NC23CCCCCC3)c(C)c1`, inactive: 99%.

As for `CCCCOc1ccc(C2C(=O)N(C3CCCCC3)CC(=O)N2C2CCCCC2)cc1` (stereo not drawn), the survival was inactive: 73%. Take `CCN(Cc1ccccc1)C(c1ccccn1)c1nnnn1C1CCCCC1` (stereo not drawn): the survival is inactive: 105%. The value for `Nc1nonc1-c1nc2ccccc2n1CCn1c(-c2nonc2N)nc2ccccc21` was inactive: 105%; that for `CCc1cccc(NC(=O)Cn2c(=O)n(CCCCCC(=O)NCc3ccc(F)cc3)c(=O)c3sccc32)c1` was inactive: 79%.
